Laboratory results taken from the supplement of paper PMC3656093.
± gives the standard deviation of the averaged measurements. The full ranking holds about 1,900 compounds; the median of “CD40L-induced NF-kB luciferase activity, plate-corrected, relative to DMSO (0) and IKK inhibitor VII (-100) controls” is about 0.032, and the lowest 2% start at about -26. This is one part of the list.

Tested on: BL2-NFkB-Luc
Assay: CD40L-induced NF-kB luciferase activity, plate-corrected, relative to DMSO (0) and IKK inhibitor VII (-100) controls (% normalized activity); higher = more NF-kB reporter activity (less inhibition)
Settings: 9.4 µM; stimulus: tCD40L 64 ng/ml; 4.5 h
Protocol: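 BL2 B cells with a stable NF-kB response-element luciferase reporter (BL2-NFkB-Luc), 384-well. Cells were pre-incubated with compound at 9.4 uM for 1 h at 37 C, then stimulated with 64 ng/ml trimerized CD40L for 4.5 h; luciferase was read with Steady-Glo. Signal was normalised per plate in Genedata (median DMSO neutral control = 0, median IKK inhibitor VII at 50 uM = -100) with Assay Median plate-pattern correction; duplicate plates.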

SMILES	CD40L-induced NF-kB luciferase activity
COc1ccc([C@H]2[C@H](C(=O)OC(C)(C)C)N3N=Cc4ccccc4C3C23C(=O)c2ccccc2C3=O)cc1OC (stereo partly specified)	-0.633 ± 2.7
NS(=O)(=O)c1cc2c(cc1C(F)(F)F)NC(Cc1ccccc1)NS2(=O)=O (stereo unspecified)	-0.0595 ± 0.71
COc1ccc(NC(=O)N2CCCCC2c2cccnc2)cc1 (stereo unspecified)	2.11 ± 0.12
CC(CN1c2ccccc2Sc2ccccc21)N(C)C (stereo unspecified)	-0.524 ± 6.9
O=C(N/C(=C/C=C\c1ccccc1)C(=O)N1CCOCC1)c1ccc(Br)cc1	1.56 ± 5.1
Cc1cc(OCC(=O)C(C)(C)C)c2c(C)c(C)c(=O)oc2c1	2.09 ± 6.8
O=C(Cc1ccccc1[N+](=O)[O-])NCc1ccncc1	-1.22 ± 0.94
Cc1ccc(OCCSc2ncccn2)c(C)c1	63.4 ± 3.3
Cc1ccc(C(=O)O)cc1NC(=O)c1cccs1	-2.76 ± 1.8
CC1(C)CC(=O)c2cn3c(nc2C1)nc1ccccc13	2.43 ± 0.29
CCn1cc(C(=O)O)c(=O)c2cc(F)c(N3CCNCC3)cc21	-0.57 ± 0.86
O=C(NCCc1c[nH]c2ccccc12)OCCSS(=O)(=O)O	0.55 ± 1.4
CCOC(=O)c1ccc2[nH]c(C)c(CCC(C)=O)c(=O)c2c1	-1.2 ± 1.3
CN(CCc1cnn(C)c1)Cc1nc(CC2CC2)no1	-0.906 ± 0.31
Cc1ccc(N2C(=O)c3ccccc3C2=O)cc1C	8.27 ± 0.4
O=c1c(C(c2ccccc2)c2c(O)sc3ccccc3c2=O)c(O)sc2ccccc12	-1.14 ± 6.7
CCOC(=O)C1=C(C)NC(C)=C(C(=O)OC)C1c1cccc([N+](=O)[O-])c1 (stereo unspecified)	-1.34 ± 4
COc1cc2ccc(=O)oc2c(O)c1OCC=C(C)C	17.9 ± 4.9
CCCCOc1ccc(OCCCN2CCOCC2)cc1	-4.49 ± 0.48
CC1CCc2cc(F)cc3c(=O)c(C(=O)O)cn1c23 (stereo unspecified)	-0.144 ± 0.46
O=C(NCC1CCCCN1)c1cc(OCC(F)(F)F)ccc1OCC(F)(F)F (stereo unspecified)	-3.67 ± 6
CC(=O)c1c[nH]c2ccc(C)cc2c1=O	13.2 ± 2.8
CC1(C)CC(CC(=O)Nc2nccs2)(c2ccccc2)CCO1 (stereo unspecified)	-2.7 ± 1.3
COc1ccc(CNC(=O)N[C@H](C(=O)O)C(C)C)cc1OC	7.96 ± 1.4

SMILES	CD40L-induced NF-kB luciferase activity
COc1cccc(N2C(=O)[C@H]3C(C(=O)c4cnccn4)=NN[C@H]3C2=O)c1	-0.748 ± 1.9
Cc1ccc2c(c1)C1CN(C)CCC1N2S(=O)(=O)c1ccc(Oc2ccc([N+](=O)[O-])cc2)cc1 (stereo unspecified)	2.33 ± 1.6
Cc1cccc(Nc2ncccc2C(=O)O)c1C	-3.873 ± 0.016
CS(=O)(=O)NCc1ccc(C(=O)NCc2ccccc2)cc1	7.75 ± 3.4
Cc1ccc2c(c1)OC(=O)CC2c1ccccc1 (stereo unspecified)	-1.28 ± 5
C#CCOc1ccc2c(C)cc(=O)oc2c1	6.2 ± 3.8
O=C1CCCCCN1Cc1ccccc1	3.92 ± 5.3
Cc1ccsc1C=NNC(=O)c1ccc2c(c1)OCO2	50.38 ± 0.13
CCOc1cc2c3c(c1)C(C)=CC(C)(C)N3C(=O)C2=O	1.89 ± 0.12
N/C(=N\OC(=O)CCCOc1ccc(Cl)cc1Cl)c1ccncc1	66.8 ± 5.8
COc1ccc(C(=O)OCc2cc3cccc(C)c3[nH]c2=O)cc1	3.33 ± 4.1
CCn1c(N2CCN(CC(=O)c3c(C)n(C)c4ccc(OC)cc34)CC2)nc2c1c(=O)[nH]c(=O)n2C	2.93 ± 5.2
COc1ccc(CCN(C)Cc2nc(Cc3ccc(OC)c(OC)c3)no2)cc1OC	-7.97 ± 12
Cc1c(OCC(F)(F)F)ccnc1C[S+]([O-])c1nc2ccccc2[nH]1 (stereo unspecified)	21 ± 2.6
Cc1ccc(SCC(=O)Nc2nccs2)cc1	48.8 ± 7.2
CCc1cc(=O)oc2cc3occ(-c4ccc(OC)c(F)c4)c3cc12	-4.14 ± 0.45
CC[n+]1c(C)sc2cc(C)ccc21	-3.64 ± 1.8
Cc1nc(N)nc2c1CCCC2	-1.37 ± 0.89
CSc1ccc(CN2CCN(CCC(C)C)C(CCO)C2)cc1 (stereo unspecified)	-4.01 ± 5.8
COc1ccc2cc(C(=O)Nc3ccc(S(N)(=O)=O)cc3)sc(=O)c2c1OC	8.87 ± 1.6
COCCCN1C(=O)C(=O)/C(=C(/O)c2ccc3c(c2)CC(C)O3)C1c1cccnc1 (stereo unspecified)	-5.92 ± 4.3
COc1ccccc1C1C(C#N)=C(N)Oc2c1oc(CO)cc2=O (stereo unspecified)	-1.31 ± 0.27
COc1ccc(-c2coc3cc(O)cc(O)c3c2=O)cc1	65.8 ± 2.2
COc1ccc(C(=O)c2oc3ccc(Br)cc3c2NC(C)=O)cc1	-1.12 ± 1.1

SMILES	CD40L-induced NF-kB luciferase activity
O=C(CC1(O)C(=O)Nc2ccccc21)c1ccccc1O (stereo unspecified)	1.73 ± 4.3
CN(C)CCC(c1ccc(Cl)cc1)c1ccccn1 (stereo unspecified)	-1.1 ± 12
CC(C)C[C@H](NC(=O)NC(C)C)C(=O)O	4.06 ± 5.6
OCC(O)CN1CCN(c2ccccc2)CC1 (stereo unspecified)	-0.715 ± 3.9
CCOC(=O)c1ccccc1NC(=O)c1ccc(F)cc1	4.78 ± 9.1
O=C(Cc1cccc2ccccc12)N1CC[C@@]2(O)CCCC[C@H]2C1	0.397 ± 3.4
CCOC(=O)C1C(=O)OC(C)(C)C1C(C)C(=O)c1ccc(C)cc1 (stereo unspecified)	-7.11 ± 5.9
CC1(C)CC(=O)C(C(=O)CCCCC(=O)C2C(=O)CC(C)(C)CC2=O)C(=O)C1	-1.33 ± 2.3
S=C(NCCOCCOCCNC(=S)Nc1ccccc1)Nc1ccccc1	-3.25 ± 0.7
CCOC(=O)c1oc2cc(OCC(N)=O)ccc2c(=O)c1-c1ccc(OC)c(OC)c1	-1.7 ± 1.9
COc1ccc(/C=C\C(=O)c2c(O)ccc3c(C)cc(=O)oc23)cc1OC	-14 ± 3.3
CC(C)(C)OC(=O)N1CC(O)CC1C(=O)OCC(=O)c1ccc(Cl)cc1 (stereo unspecified)	0.466 ± 2.2
Nc1[nH]c(=O)ncc1F	1.45 ± 4.4
C[C@]12CCC3C(CC=C4C[C@@H](O)CC[C@@]43C)C1CCC2[C@]1(C)CCC(=O)O1 (stereo partly specified)	0.402 ± 0.94
CN(C)CCOC(=O)C(c1ccccc1)C1(O)CCCC1 (stereo unspecified)	-7.92 ± 3.4
CC(C)(C)NCC(O)COc1ccccc1C(=O)CCc1ccccc1 (stereo unspecified)	0.277 ± 3.4
Cc1ccc2c(c1)c(C)cc(=O)n2CCC(=O)O	1.95 ± 3.4
O=C(NCCc1nc2ccccc2[nH]1)c1cccc(Br)c1	-2.89 ± 7.2
O=C(O)c1ccccc1Nc1cccc(C(F)(F)F)c1	-0.457 ± 2.1
CC(=O)Oc1ccc(C(c2ccc(OC(C)=O)cc2)c2ccccn2)cc1	-2.11 ± 0.43
N=c1nc(N2CCCCC2)cc(N)n1O	3.27 ± 5.3
COc1ccc(C2OC[C@H]3O[C@H](O)[C@H](NC(C)=O)[C@@H](O)[C@@H]3O2)cc1 (stereo partly specified)	-1.67 ± 0.076
O=[N+]([O-])c1ccc(O)c2ncccc12	-1.58 ± 2.2
COc1cccc(CC(=O)NCC2COc3ccccc3O2)c1OC (stereo unspecified)	-4.07 ± 2

SMILES	CD40L-induced NF-kB luciferase activity
CC(=O)OCC1OC(n2ccc(=O)[nH]c2=O)C(O)C1O (stereo unspecified)	3.06 ± 0.22
CC(NCCc1ccc(O)cc1)C(O)c1ccc(O)cc1 (stereo unspecified)	0.0595 ± 4.6
COC(=O)C1=NN(C(=O)c2cccc(Br)c2)C(O)(c2ccc(Cl)cc2)C1 (stereo unspecified)	-3.91 ± 2.9
CC12CCC(C(=O)Nc3ccccc3Br)(CC1=NO)C2(C)C (stereo unspecified)	2.02 ± 4
Cc1ccc2c(CN3CCN(Cc4ccc5c(c4)OCO5)CC3)cc(=O)oc2c1C	-2.17 ± 9.3
Cc1nc2ccccc2n1CC(O)Cn1c2ccccc2c2ccccc21 (stereo unspecified)	-1.02 ± 0.85
CCC1(c2ccccc2)NC(=S)N(c2ccc(C)c(C)c2)N1 (stereo unspecified)	-4.42 ± 11
CC1(C)CC(=O)C2=C(C1)c1c(ccc3ccccc13)NC2c1ccco1 (stereo unspecified)	45.7 ± 2.5
Cc1ccc2[nH]c3c(c2c1)CCNC3=O	-5.41 ± 0.7
CCOC(=O)C1=C(C)NC(C)=C(C(=O)OC)C1c1cccc(Cl)c1Cl (stereo unspecified)	-0.0605 ± 7.1
Cc1nc2sccn2c(=O)c1CCN1CCC(=C(c2ccc(F)cc2)c2ccc(F)cc2)CC1	-12.2 ± 1.6
CCOc1ccc(C(=O)NC(C)C2COc3ccccc3O2)cc1 (stereo unspecified)	18.5 ± 5.3
C[C@H](CCC(=O)O)[C@H]1CC[C@H]2[C@@H]3C(=O)C[C@@H]4CC(=O)CC[C@]4(C)[C@H]3CC(=O)[C@]12C	-0.821 ± 1.5
CCSC(=O)CCCCCCCCCCCO	10.2 ± 2.4
Cc1ncoc1C(=O)N1CCCC(C(=O)c2ccc(-c3ccccc3)c(F)c2)C1 (stereo unspecified)	-1.58 ± 0.54
COc1ccc(-c2[nH]ncc2CN(C)C(C)c2ccon2)c(OC)c1 (stereo unspecified)	-5.7 ± 5.7
C=CCc1ccc(OCC(O)COc2ccc(CC=C)cc2OC)c(OC)c1	6.35 ± 7.1
O=C(O)c1cnccn1	-0.082 ± 2.6
CN1CCN2c3ccccc3Cc3ccccc3C2C1 (stereo unspecified)	0.392 ± 0.068
COc1ccc(/C=C/C(=O)c2cc3cccc(OC)c3oc2=O)cc1	4.63 ± 2.5
CCN(CC)Cc1c[nH]c2c(C(=O)OC)cccc12	2.98 ± 0.3
O=C1c2cccc3cccc(c23)C(=O)N1c1ccccn1	3.96 ± 0.69
O=C(O)CCC(=O)c1ccc(-c2ccccc2)cc1	39.5 ± 4.7
Cc1cc(C)c(NC(=O)NC(=O)C(Cl)(Cl)Cl)c(C)c1	-1.23 ± 3.9

SMILES	CD40L-induced NF-kB luciferase activity
CC(=O)N=c1sc(S(N)(=O)=O)nn1C	-0.0005 ± 4.8
CC(=O)N(CCC1(C(C)C)CCOC(C)(C)C1)Cc1ccco1 (stereo unspecified)	-4.91 ± 6.3
CC(C)NNC(=O)c1ccncc1	-8.05 ± 8.5
COc1ccc2[nH]cc(C3N4CC5(C)CN3CC(C)(C4)C5=O)c2c1 (stereo unspecified)	2.08 ± 1.7
Cc1ccccc1C(=O)NNc1ncnc2c1cnn2C	-2.14 ± 2.1
CCOc1ccc2[nH]c3c(=O)n(CCc4ccc(OC)cc4)cnc3c2c1	-2.8 ± 3.9
COc1c2occc2c(OC)c2c(=O)cc(C(F)(F)C(F)(F)F)oc12	0.266 ± 3
COc1ccc(C(CC(=O)N2CCOCC2)C(C)C)cc1 (stereo unspecified)	4.41 ± 7.1
CC(=O)[C@H]1[C@H](C#N)C[C@H]2[C@@H]3CC=C4C[C@@H](O)CC[C@]4(C)[C@H]3CC[C@@]21C	-2.58 ± 4.3
OC(CCN1CCCCC1)(c1ccccc1)c1ccccc1	0.773 ± 2.9
N=c1ccn(CC(=O)NC(N)=O)c2ccccc12	-1.5 ± 3.9
CCC(C)NCCOc1ccccc1C (stereo unspecified)	-0.253 ± 4.2
COc1ccc(/C=C2\CC/C(=C\c3ccc(OC)c(OC)c3)C2=O)cc1OC	24 ± 2.5
COc1cc2c(cc1O)CCN(C(=O)c1ccco1)C2C (stereo unspecified)	0.059 ± 5.1
CSCC[C@H](NC(=O)OC(C)(C)C)C(=O)N1CCC(C(=O)N[C@@H](C)C(=O)O)CC1	-0.66 ± 0.41
CC(C)c1cc(=O)oc2c3c4c(cc12)CCCN4CCC3	2.28 ± 2
CN(C)c1cc(NC(=O)CN2CCOCC2)c2ccccc2n1	3.35 ± 23
Cc1nc2c(c3c1[nH]c1ccccc13)C(=O)CC(C)(C)C2	-0.509 ± 4.8
CC(C)=CCCC1=CCC2C(=O)NNC(=O)C2C1 (stereo unspecified)	-2.77 ± 2.9
CC(C)(C)OC(=O)COc1cc(OCC(=O)OC(C)(C)C)c2c(=O)cc(-c3ccccc3)oc2c1	-1.69 ± 2
